Over roughly 1,400 sequences, “thermal melting temperature (Tm) of peptide-HLA complex” has its median near 60; the lowest 2% begin near 45. The list shows a part of the results.
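Also: cell lysates heated 10 min at 37–73 °C, remaining pHLA pulled down with pan-class I antibody, peptides quantified by DIA-MS versus 37 °C, Tm where half the complex is lost.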

This assay addresses HLA-B*07:02. In words: thermal melting temperature (Tm) of peptide-HLA complex; higher = more thermostable pHLA complex. The note with it: C1R-B*07:02.
On to KPVNPSPLSQL, for which the thermal melting temperature is 58.9 °C.
Next, SLNSLRSSL: 58.5 °C; TPMPPISSV: 63 °C; QPRLSSILF: 61.5 °C.
Next, MPRHFATKL: 58.3 °C.
In turn, RPYPSPGAVL displayed a thermal melting temperature of 60.4 °C.
Next, QPHVNGRLAM: 51.5 °C.
Next, VPRLPGETL: 64.1 °C; SPMADRSMM: 59.5 °C; IPAKLHNSL: 55.5 °C.
VPRLNSSPLAL displayed a thermal melting temperature of 49.1 °C.
Next, FPSSVRIHLL: 54.3 °C.
RPIYPVEEL showed a thermal melting temperature of 58.8 °C.
Next, RPVLPLML: 60 °C; SPYQGGVFF: 60.3 °C; RPAVSLTL: 60.5 °C.

Values taken from the supplement of paper PMC7726561.
